Laboratory results published in PubChem BioAssay AID1468 (National Center for Advancing Translational Sciences (NCATS), 2008).
Among all 280,000 compounds or so, about 1,100 (0.39%) were called active. Inconclusive means that the source gave no clear call. Such entries were picked first, then a sample of the others. Calls follow the shape of the dose curve; as a rule, active = well fitted inhibition curve with a large enough effect; inconclusive = small, poorly fitted or top-dose-only effect, or effect the other way; inactive = flat fitted curve, though single readings scatter. Potencies of inconclusive entries are left out as doubtful fits.

target: Microtubule-associated protein tau (Homo sapiens) (UniProt P10636); assay: qHTS for Inhibitors of Tau Fibril Formation, Fluorescence Polarization; settings: K18 P301L tau heparin fibrillization, Alexa594 FP, 6 h; series mostly up to 57.7 µM; also: nearly all actives have a fitted effect of over 55% in size
Chain of UniProt P10636 (P10636 whole entry, looked up): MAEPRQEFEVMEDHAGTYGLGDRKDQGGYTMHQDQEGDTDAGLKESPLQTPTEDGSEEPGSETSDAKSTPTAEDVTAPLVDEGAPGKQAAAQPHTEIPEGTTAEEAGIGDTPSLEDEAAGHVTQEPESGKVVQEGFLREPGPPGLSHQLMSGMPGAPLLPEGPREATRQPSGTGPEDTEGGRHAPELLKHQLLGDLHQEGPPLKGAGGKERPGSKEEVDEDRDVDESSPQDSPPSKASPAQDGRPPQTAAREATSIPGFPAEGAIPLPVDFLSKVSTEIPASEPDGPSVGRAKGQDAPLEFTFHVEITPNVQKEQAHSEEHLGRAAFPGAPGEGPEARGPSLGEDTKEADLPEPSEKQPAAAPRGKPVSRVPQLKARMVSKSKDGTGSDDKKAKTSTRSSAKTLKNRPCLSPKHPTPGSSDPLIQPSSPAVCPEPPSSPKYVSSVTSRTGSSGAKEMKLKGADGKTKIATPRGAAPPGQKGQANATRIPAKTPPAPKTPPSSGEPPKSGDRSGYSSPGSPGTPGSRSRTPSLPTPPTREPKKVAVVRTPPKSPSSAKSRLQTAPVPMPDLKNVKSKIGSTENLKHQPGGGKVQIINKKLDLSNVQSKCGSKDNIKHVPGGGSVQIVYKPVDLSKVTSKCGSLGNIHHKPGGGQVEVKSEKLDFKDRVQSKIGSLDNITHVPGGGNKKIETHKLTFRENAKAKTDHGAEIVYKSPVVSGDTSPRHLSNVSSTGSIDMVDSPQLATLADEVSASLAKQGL
Method in brief: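 Read-out: fluorescence polarization of Alexa 594-labeled tau (0.24 uM), 555 nm excitation, 632 nm emission. Mixtures held 15 uM unlabeled K18 P301L, compound and 20 uM heparin, pH 7 acetate buffer, incubated 6 hr at 37 C.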
% is scaled to controls: 0 for no effect and ±100 for the full control effect; potency is read from the fitted curve at half-maximal effect; tags tell the direction and shape of the fitted curve.

Row | SMILES | Potency | activity, negative = inhibition
1 | O=C(NCc1nc(-c2ccccc2)no1)Nc1ccc(F)cc1 | inconclusive [inhibitor, partial curve] | –
2 | Fc1cccc(NC(=S)NCc2ccccn2)c1 | inconclusive [activator, full curve, poor fit] | –
3 | O=S(=O)(c1ccc(Br)cc1)c1nc(-c2cccs2)oc1SCc1ccc(F)cc1 | inactive | –
4 | N#Cc1ccccc1Sc1ccccc1C(=O)OCC(N)=O | inconclusive [inhibitor, single point] | –
5 | Cc1[nH]c2ccc(C(=O)Nc3ccc(F)cc3)cc2c1C | inconclusive [activator, single point] | –
6 | C=CCn1c(SCC(=O)NC(=O)NC)nnc1C1CCCCC1 | inactive | –
7 | c1ccc(-n2nnnc2SCc2ccccn2)cc1 | inconclusive [inhibitor, single point] | –
8 | S=c1[nH]nc(-c2ccccc2Cl)n1Cc1ccccc1 | inactive | –
9 | CNC(=O)/C=C1\NC(C)(C)Cc2ccccc21 | inactive | –
10 | Cc1cc(C)c(Cc2c(C)nc3c(C(=O)NCc4ccco4)cnn3c2C)c(C)c1 | inactive | –
11 | O=c1[nH]nc(Cc2ccccc2)c2ccccc12 | inactive | –
12 | O=C(NC1CCCCC1)c1cc(C(=O)c2ccccc2Br)c[nH]1 | inactive | –
13 | Cc1ccc(-n2[nH]c(C)c(/C=N/Nc3ccc([N+](=O)[O-])cc3[N+](=O)[O-])c2=O)cc1C | active: 20 µM | –
14 | Cn1cc(CN2CCc3c([nH]c4ccccc34)C2C2CCCCC2)cn1 (stereo not drawn) | – | inactive: -3.54% [at 2.34 µM]
15 | C/C=C(\C)C(=O)C[Si](C)(C)c1ccccc1 | inconclusive [inhibitor, single point] | –
16 | O=C(c1ccccc1)C(C(=O)N1CCCCC1)n1ccccc1=O (stereo not drawn) | inconclusive [inhibitor, single point] | –
17 | CCOc1ccc(C(=O)NCC(=O)OCc2c(C)noc2C)cc1OCC | inactive | –
18 | CN1c2ccsc2C(O)=C(C(=S)Nc2ccccc2)S1(=O)=O | inactive | –
19 | COc1ccc(OC)c(CCNC(=O)CC2Oc3ccccc3NC2=O)c1 (stereo not drawn) | inactive | –
20 | O=C(Nc1ccc(Br)cc1)c1cc2nc(-c3ccccc3)cc(-c3ccccc3)n2n1 | inconclusive [inhibitor, partial curve] | –
21 | COc1ccc(NC(=S)NC(=O)/C=C/c2cccs2)cc1 | inconclusive [inhibitor, partial curve] | –
22 | Cc1onc(-c2ccccc2Cl)c1-c1nc(-c2ccncc2)no1 | inconclusive [inhibitor, single point] | –
23 | C=C1C(=O)C=C[C@]2(C)C[C@@H]3OC(=O)[C@](C)(O)[C@H]3C[C@@H]12 | inconclusive [inhibitor, partial curve] | –
24 | CCn1c(C)c(C(C)=O)c(N2CCN(c3ccc(OC)cc3)CC2)nc1=S | inconclusive [inhibitor, single point] | –

Row | SMILES | Potency | activity, negative = inhibition
25 | Cc1ccc(NC(=O)c2cc(S(=O)(=O)NC3CCCCCC3)ccc2F)cc1F | inconclusive [inhibitor, single point] | –
26 | CCNC(=O)C1CCN(c2nc3ccccc3nc2C(F)(F)F)CC1 | inactive | –
27 | CCC(C)Nc1nc(-c2cccc(OC)c2O)nc2ccccc12 (stereo not drawn) | inconclusive [activator, partial curve] | –
28 | CCC(C)c1ccc(NC(=S)Nc2ccc(OC)cc2C)cc1 (stereo not drawn) | inactive | –
29 | CCOC(=O)C[n+]1c(C)sc2ccc(OC)cc21 | inconclusive [inhibitor, partial curve] | –
30 | Cn1cnnc1SCC(=O)c1cc2ccccc2oc1=O | inconclusive [inhibitor, single point] | –
31 | CC1=C(C(=O)O)N2C(=O)C(NC(=O)C(N)c3ccc(O)cc3)C2SC1 (stereo not drawn) | inconclusive [inhibitor, partial curve] | –
32 | O=C(Nc1cc2c3c(c1)C1CCCC1CN3CC1CCCC21)c1ccc([N+](=O)[O-])cc1 (stereo not drawn) | inconclusive [activator, full curve, poor fit] | –
33 | O=C(Cc1ccccc1)N/N=C/C=C/c1ccccc1[N+](=O)[O-] | inactive | –
34 | O=C(CSc1ccccc1)N1CCc2c([nH]c3ccccc23)C1c1ccc(Cl)cc1 (stereo not drawn) | inactive | –
35 | O=C(COc1ccccc1Cl)N1CCN(c2ccc([N+](=O)[O-])c(N3CCCCC3)c2)CC1 | inactive | –
36 | COc1cc(CN(C(=O)COc2ccc(Cl)cc2)c2ccccn2)cc(OC)c1OC | inactive | –
37 | Nc1ccc(N2CCOCC2)c2nonc12 | inconclusive [inhibitor, partial curve] | –
38 | CC(C)=CC[C@@H](O)C1=CC(=O)c2c(O)ccc(O)c2C1=O | active: 12.6 µM | –
39 | CCc1ccc(NC(=O)CSc2nc(C)c(C(=O)Nc3ccc(Cl)cc3)c(-c3ccc(OC)cc3)c2C#N)cc1 | inconclusive [inhibitor, partial curve] | –
40 | Cc1cc(C)nc(NC(=O)c2cc(Br)ccc2Cl)n1 | inconclusive [inhibitor, single point] | –
41 | COc1ccc(C2CC(c3ccccc3)=NN2C(=O)c2cccs2)cc1 (stereo not drawn) | inconclusive [inhibitor, partial curve] | –
42 | O=C1C(Cl)=C(N2CCOCC2)C(=O)N1c1ccccc1 | active: 28.2 µM | –
43 | CCc1ccc(-c2cc(C)no2)cc1S(=O)(=O)Nc1ccc(Cl)cc1 | inconclusive [inhibitor, partial curve, poor fit] | –
44 | O=C(Cn1cnc2ccccc21)Nc1ccc(SC(F)F)cc1 | inactive | –
45 | COc1cccc(C2CC(=O)N3CN(C4CCCCC4)CSC3=C2C#N)c1 (stereo not drawn) | inconclusive [inhibitor, partial curve] | –
46 | CC1CN(C(=O)N2CCC(C(=O)NC3CCCCCC3)CC2)c2ccccc2O1 (stereo not drawn) | inconclusive [inhibitor, partial curve, poor fit] | –
47 | COc1ccccc1C(OC(=O)c1cccs1)C(=O)NCc1ccco1 (stereo not drawn) | inconclusive [inhibitor, single point] | –
48 | Cc1ccccc1-n1nc2c(c1NC(=O)c1ccc(Br)o1)CSC2 | inconclusive [inhibitor, single point] | –
